# According to the supplement of paper PMC8728848:
# Some of the results follow.
# Experiments:
# Test in all cases: glycan array binding signal (z-score within array); higher = stronger binding
# Details in all cases: glycan notation: IUPAC condensed, linker removed
# Neu5Ac(a2-8)Neu5Ac = biological target: Neu5Ac(a2-8)Neu5Ac
# Summary of the method: (§1)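 From the Consortium for Functional Glycomics database, 3228 arrays were curated, keeping only those whose protein sequence was available. Binding is given as a within-array Z-score averaged across arrays sharing a protein sequence and across linkers. Negative Z-scores can be read as non-binding.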
# [1] = biological target: Neu5Ac(a2-8)Neu5Ac(a2-3)Gal(b1-3)GalNAc(b1-4)[Neu5Ac(a2-3)]Gal(b1-4)Glc
# Summary of the method: as §1
# [2] = biological target: Neu5Ac(a2-8)Neu5Ac(a2-3)Gal(b1-3)GalNAc(b1-4)[Neu5Ac(a2-8)Neu5Ac(a2-3)]Gal(b1-4)Glc
# Summary of the method: as §1
# [3] = biological target: Neu5Ac(a2-8)Neu5Ac(a2-3)Gal(b1-4)Glc
# Summary of the method: as §1
# [4] = biological target: Neu5Ac(a2-8)Neu5Ac(a2-3)Gal(b1-4)GlcNAc
# Summary of the method: as §1
# [5] = biological target: Neu5Ac(a2-8)Neu5Ac(a2-3)[Gal(b1-3)GalNAc(b1-4)]Gal(b1-4)Glc
# Summary of the method: as §1
# [6] = biological target: Neu5Ac(a2-8)Neu5Ac(a2-3)[GalNAc(b1-4)]Gal(b1-4)Glc
# Summary of the method: as §1
# [7] = biological target: Neu5Ac(a2-8)Neu5Ac(a2-8)Neu5Ac
# Summary of the method: as §1
# [8] = biological target: Neu5Ac(a2-8)Neu5Ac(a2-8)Neu5Ac(a2-3)Gal(b1-4)Glc
# Summary of the method: as §1
# [9] = biological target: Neu5Ac(a2-8)Neu5Ac(a2-8)Neu5Ac(a2-3)[Gal(b1-3)GalNAc(b1-4)]Gal(b1-4)Glc
# Summary of the method: as §1
# [10] = biological target: Neu5Ac(a2-8)Neu5Ac(a2-8)Neu5Ac(a2-3)[GalNAc(b1-4)]Gal(b1-4)Glc
# Summary of the method: as §1
# [11] = biological target: Neu5Ac(a2-8)Neu5Ac(a2-8)Neu5Ac(a2-8)Neu5Ac(a2-3)[GalNAc(b1-4)]Gal(b1-4)Glc
# Summary of the method: as §1
# [12] = biological target: Neu5Ac(a2-8)Neu5Gc(a2-3)Gal(b1-4)GlcNAc
# Summary of the method: as §1
# [13] = biological target: Neu5Ac(b2-6)Gal(b1-4)GlcNAc
# Summary of the method: as §1
# Neu5Ac(b2-6)GalNAc = biological target: Neu5Ac(b2-6)GalNAc
# Summary of the method: as §1
# [14] = biological target: Neu5Ac9Ac(a2-3)Gal(b1-3)GlcNAc
# Summary of the method: as §1
# [15] = biological target: Neu5Ac9Ac(a2-3)Gal(b1-4)GlcNAc
# Summary of the method: as §1
# [16] = biological target: Neu5Ac9Ac(a2-6)Gal(b1-4)GlcNAc
# Summary of the method: as §1
# [17] = biological target: Neu5Gc(a2-3)Gal(b1-3)GlcNAc
# Summary of the method: as §1
# [18] = biological target: Neu5Gc(a2-3)Gal(b1-3)[Fuc(a1-4)]GlcNAc
# Summary of the method: as §1
# Neu5Gc(a2-3)Gal(b1-4)Glc = biological target: Neu5Gc(a2-3)Gal(b1-4)Glc
# Summary of the method: as §1
# [19] = biological target: Neu5Gc(a2-3)Gal(b1-4)GlcNAc
# Summary of the method: as §1
# [20] = biological target: Neu5Gc(a2-3)Gal(b1-4)GlcNAc(b1-3)Gal(b1-4)GlcNAc(b1-2)Man(a1-3)[Neu5Gc(a2-3)Gal(b1-4)GlcNAc(b1-3)Gal(b1-4)GlcNAc(b1-2)Man(a1-6)]Man(b1-4)GlcNAc(b1-4)GlcNAc
# Summary of the method: as §1
# [21] = biological target: Neu5Gc(a2-3)Gal(b1-4)[Fuc(a1-3)]GlcNAc
# Summary of the method: as §1
# [22] = biological target: Neu5Gc(a2-6)Gal(b1-4)GlcNAc
# Summary of the method: as §1
# Neu5Gc(a2-6)GalNAc = biological target: Neu5Gc(a2-6)GalNAc
# Summary of the method: as §1
# [23] = biological target: Neu5Gc(a2-8)Neu5Ac(a2-3)Gal(b1-4)GlcNAc
# Summary of the method: as §1
# [24] = biological target: Neu5Gc(a2-8)Neu5Gc(a2-3)Gal(b1-4)GlcNAc
# Summary of the method: as §1
# [25] = biological target: Neu5Gc(a2-8)Neu5Gc(a2-3)Gal(b1-4)GlcNAc(b1-3)Gal(b1-4)GlcNAc
# Summary of the method: as §1
# [26] = biological target: Neu5Gc(a2-8)Neu5Gc(a2-6)Gal(b1-4)GlcNAc
# Summary of the method: as §1
# [27] = biological target: Neu5Gc(b2-6)Gal(b1-4)GlcNAc
# Summary of the method: as §1
binder,measurement,setting,value
CBM40 CPF071 (Clostridium perfringens) (protein) MAHHHHHHVGTGSNDDDDKSPDPMLSSLGEYKDINLESSNASNITYDLEKYKNLDEGTIVVRFNSKDSKIQSLLGISNSKTKNGYFNFYVTNSRVGFELRNQKNEGNTQNGTENLVHMYKDVALNDGDNTVALKIEKNKGYKLFLNGKMIKEVKDTNTKFLNNIENLDSAFIGKTNRYGQSNEYNFKGNIGFMNIYNEPLGDDYLLSKTGETK,glycan array binding signal (z-score),Neu5Ac(a2-8)Neu5Ac,0.538
same,glycan array binding signal (z-score),[1],-0.205
same,glycan array binding signal (z-score),[2],0.004
same,glycan array binding signal (z-score),[3],-0.44
same,glycan array binding signal (z-score),[4],0.138
same,glycan array binding signal (z-score),[5],0.004
same,glycan array binding signal (z-score),[6],-0.152
same,glycan array binding signal (z-score),[7],-0.128
same,glycan array binding signal (z-score),[8],-0.245
same,glycan array binding signal (z-score),[9],-0.228
same,glycan array binding signal (z-score),[10],-0.206
same,glycan array binding signal (z-score),[11],-0.358
same,glycan array binding signal (z-score),[12],-0.502
same,glycan array binding signal (z-score),[13],0.126
same,glycan array binding signal (z-score),Neu5Ac(b2-6)GalNAc,-0.314
same,glycan array binding signal (z-score),[14],1.21
same,glycan array binding signal (z-score),[15],0.24
same,glycan array binding signal (z-score),[16],-0.331
same,glycan array binding signal (z-score),[17],0.189
same,glycan array binding signal (z-score),[18],0.909
same,glycan array binding signal (z-score),Neu5Gc(a2-3)Gal(b1-4)Glc,0.235
same,glycan array binding signal (z-score),[19],1.51
same,glycan array binding signal (z-score),[20],2.46
same,glycan array binding signal (z-score),[21],-0.12
same,glycan array binding signal (z-score),[22],-0.336
same,glycan array binding signal (z-score),Neu5Gc(a2-6)GalNAc,0.037
same,glycan array binding signal (z-score),[23],-0.109
same,glycan array binding signal (z-score),[24],-0.362
same,glycan array binding signal (z-score),[25],0.304
same,glycan array binding signal (z-score),[26],-0.613
same,glycan array binding signal (z-score),[27],-0.495
